Laboratory results published in article PMC9911399, “Two distinct binding modes provide the RNA-binding protein RbFox with extraordinary sequence specificity”.
Positions count from the first letter of the chain named. The list shows a part of the results.

B1: ACCGAGA (DNA:RNA)
RNA: GGGAGACCGGAAUUCAGAUUGUCCACCGAGAUUAAAUCCCGUCGUAGCCACCA
DNA 1: CAATCTGAATTCCGGTCTCCC
DNA 2: TGGTGGCTACGACGGGATT
B2: UGAGCUC (DNA:RNA)
RNA: B1 RNA with A25U, C26G, C27A, A29C, G30U, A31C
DNA 1: CAATCTGAATTCCGGTCTCCC
DNA 2: TGGTGGCTACGACGGGATT
B3: CAGACGA (DNA:RNA)
RNA: B1 RNA with A25C, C26A, C27G, G28A, A29C
DNA 1: CAATCTGAATTCCGGTCTCCC
DNA 2: TGGTGGCTACGACGGGATT
B4: CUGCAGC (DNA:RNA)
RNA: B1 RNA with A25C, C26U, C27G, G28C, A31C
DNA 1: CAATCTGAATTCCGGTCTCCC
DNA 2: TGGTGGCTACGACGGGATT
B5: UUAGGUA (DNA:RNA)
RNA: B1 RNA with A25U, C26U, C27A, A29G, G30U
DNA 1: CAATCTGAATTCCGGTCTCCC
DNA 2: TGGTGGCTACGACGGGATT
B6: ACUAGAA (DNA:RNA)
RNA: B1 RNA with C27U, G28A, A29G, G30A
DNA 1: CAATCTGAATTCCGGTCTCCC
DNA 2: TGGTGGCTACGACGGGATT
B7: AAGCGUA (DNA:RNA)
RNA: B1 RNA with C26A, C27G, G28C, A29G, G30U
DNA 1: CAATCTGAATTCCGGTCTCCC
DNA 2: TGGTGGCTACGACGGGATT
B8: CGGUUGG (DNA:RNA)
RNA: B1 RNA with A25C, C26G, C27G, G28U, A29U, A31G
DNA 1: CAATCTGAATTCCGGTCTCCC
DNA 2: TGGTGGCTACGACGGGATT
B9: GGAUCAU (DNA:RNA)
RNA: GGGAGACCGGAAUUCAGAUUGUCCGGAUCAUUUAAAUCCCGUCGUAGCCACCA
DNA 1: CAATCTGAATTCCGGTCTCCC
DNA 2: TGGTGGCTACGACGGGATT
B10: CAAAAAU (DNA:RNA)
RNA: B9 RNA with G25C, G26A, U28A, C29A
DNA 1: CAATCTGAATTCCGGTCTCCC
DNA 2: TGGTGGCTACGACGGGATT
B11: GAUCCAA (DNA:RNA)
RNA: B9 RNA with G26A, A27U, U28C, U31A
DNA 1: CAATCTGAATTCCGGTCTCCC
DNA 2: TGGTGGCTACGACGGGATT
B12: GACUGUA (DNA:RNA)
RNA: B1 RNA with A25G, C26A, G28U, A29G, G30U
DNA 1: CAATCTGAATTCCGGTCTCCC
DNA 2: TGGTGGCTACGACGGGATT
B13: UCAGCAG (DNA:RNA)
RNA: B9 RNA with G25U, G26C, U28G, U31G
DNA 1: CAATCTGAATTCCGGTCTCCC
DNA 2: TGGTGGCTACGACGGGATT
B14: UGAGGGC (DNA:RNA)
RNA: B1 RNA with A25U, C26G, C27A, A29G, A31C
DNA 1: CAATCTGAATTCCGGTCTCCC
DNA 2: TGGTGGCTACGACGGGATT
B15: AGGUAGG (DNA:RNA)
RNA: B1 RNA with C26G, C27G, G28U, A31G
DNA 1: CAATCTGAATTCCGGTCTCCC
DNA 2: TGGTGGCTACGACGGGATT
B16: CGGGCUC (DNA:RNA)
RNA: B9 RNA with G25C, A27G, U28G, A30U, U31C
DNA 1: CAATCTGAATTCCGGTCTCCC
DNA 2: TGGTGGCTACGACGGGATT
B17: UUAAAGU (DNA:RNA)
RNA: B1 RNA with A25U, C26U, C27A, G28A, A31U
DNA 1: CAATCTGAATTCCGGTCTCCC
DNA 2: TGGTGGCTACGACGGGATT
B18: ACCGCAC (DNA:RNA)
RNA: B1 RNA with A29C, G30A, A31C
DNA 1: CAATCTGAATTCCGGTCTCCC
DNA 2: TGGTGGCTACGACGGGATT
B19: GUGCACA (DNA:RNA)
RNA: B1 RNA with A25G, C26U, C27G, G28C, G30C
DNA 1: CAATCTGAATTCCGGTCTCCC
DNA 2: TGGTGGCTACGACGGGATT
B20: GAAGCAG (DNA:RNA)
RNA: B9 RNA with G26A, U28G, U31G
DNA 1: CAATCTGAATTCCGGTCTCCC
DNA 2: TGGTGGCTACGACGGGATT

Target: T1, RBFOX1 RRM RbFoxmut (Fox-RRM*) (Homo sapiens, UniProt Q9NWB1 109-208, R118D;E147R;N151S;E152T)
T1 sequence: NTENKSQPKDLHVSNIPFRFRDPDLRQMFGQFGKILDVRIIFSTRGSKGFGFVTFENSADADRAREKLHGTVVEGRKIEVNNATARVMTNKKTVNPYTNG
Assay: EMSA; HiTS-Eq, 1 nM pool, 10 min; buffer printed only for the single-RNA assays: 10 mM Tris pH 7.5, 150 mM NaCl, 3.4 mM EDTA, 0.001% NP-40, 30 C
Conditions: tags: His6 N-terminal (pET28a); label: 5' 32P
Method in brief: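 Purified RbFox RRM, wild type or mutant, was incubated for 10 min in 50 µL with 1 nM of a 5′-radiolabelled RNA pool carrying 7 randomized nucleotides, whose flanks were annealed to DNA oligonucleotides, over a series of increasing protein concentrations. Unbound RNA was resolved on 8% native PAGE, cut out, reverse-transcribed, barcoded by PCR and sequenced on an Illumina HiSeq 2500. Relative association constants were derived from changes in read counts for each RNA species versus the control reaction and normalised to the cognate motif.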

| Binder | binding signal |
| --- | --- |
| B1 | 0.0698 KA relative to UGCAUGU |
| B2 | 0.0396 KA relative to UGCAUGU |
| B3 | 0.0361 KA relative to UGCAUGU |
| B4 | 0.0634 KA relative to UGCAUGU |
| B5 | 0.148 KA relative to UGCAUGU |
| B6 | 0.108 KA relative to UGCAUGU |
| B7 | 0.135 KA relative to UGCAUGU |
| B8 | 0.13 KA relative to UGCAUGU |
| B9 | 0.134 KA relative to UGCAUGU |
| B10 | 0.0784 KA relative to UGCAUGU |
| B11 | 0.0776 KA relative to UGCAUGU |
| B12 | 0.31 KA relative to UGCAUGU |
| B13 | 0.0847 KA relative to UGCAUGU |
| B14 | 0.0898 KA relative to UGCAUGU |
| B15 | 0.112 KA relative to UGCAUGU |
| B16 | 0.126 KA relative to UGCAUGU |
| B17 | 0.0977 KA relative to UGCAUGU |
| B18 | 0.0716 KA relative to UGCAUGU |
| B19 | 0.111 KA relative to UGCAUGU |
| B20 | 0.075 KA relative to UGCAUGU |
